# This is one part of the list.
# B1: IRP60A (Homo sapiens), Q9UGN4 (protein)
# chain: MWLPWALLLLWVPGCFALSKCRTVAGPVGGSLSVQCPYEKEHRTLNKYWCRPPQIFLCDKIVETKGSAGKRNGRVSIRDSPANLSFTVTLENLTEEDAGTYWCGVDTPWLRDFHDPVVEVEVSVFPASTSMTPASITAAKTSTITTAFPPVSSTTLFAVGATHSASIQEETEEVVNSQLPLLLSLLALLLLLLVGASLLAWRMFQKWIKAGDHSELSQNPKQAATQSELHYANLELLMWPLQEKPAPPREVEVEYSTVASPREELHYASVVFDSNTNRIAAQRPREEEPDSDYSVIRKT
# Key:
# Test in all cases: glycan array binding signal (z-score within array); higher = stronger binding
# Settings in all cases: glycan notation: IUPAC condensed, linker removed
# [1] = molecular target: Gal(a1-3)Gal(b1-4)[Fuc(a1-3)]GlcNAc
# How it was run: (§1)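 Columns mapping to the same glycan were averaged after glycan names were converted to IUPAC-condensed notation. The data come from 3228 arrays in the Consortium for Functional Glycomics database, limited to those with an available protein sequence. Binding is reported as a within-array Z-score averaged across arrays of one protein sequence and across linkers.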
# Gal(a1-3)GalNAc = molecular target: Gal(a1-3)GalNAc
# How it was run: as §1
# [2] = molecular target: Gal(a1-3)[Gal(a1-4)]Gal(b1-4)GlcNAc
# How it was run: as §1
# Gal(a1-4)Gal(b1-4)Glc = molecular target: Gal(a1-4)Gal(b1-4)Glc
# How it was run: as §1
# Gal(a1-4)Gal(b1-4)GlcNAc = molecular target: Gal(a1-4)Gal(b1-4)GlcNAc
# How it was run: as §1
# Gal(a1-4)GlcNAc = molecular target: Gal(a1-4)GlcNAc
# How it was run: as §1
# Gal(a1-6)Glc = molecular target: Gal(a1-6)Glc
# How it was run: as §1
# Gal(b1-2)Gal = molecular target: Gal(b1-2)Gal
# How it was run: as §1
# Gal(b1-3)Gal = molecular target: Gal(b1-3)Gal
# How it was run: as §1
# Gal(b1-3)GalNAc = molecular target: Gal(b1-3)GalNAc
# How it was run: as §1
# [3] = molecular target: Gal(b1-3)GalNAc(b1-4)Gal(b1-4)Glc
# How it was run: as §1
# [4] = molecular target: Gal(b1-3)GalNAc(b1-4)[Neu5Ac(a2-3)]Gal(b1-4)Glc
# How it was run: as §1
# Gal(b1-3)GlcNAc = molecular target: Gal(b1-3)GlcNAc
# How it was run: as §1
# [5] = molecular target: Gal(b1-3)GlcNAc(b1-3)Gal(b1-4)Glc
# How it was run: as §1
# [6] = molecular target: Gal(b1-3)[Fuc(a1-4)]GlcNAc
# How it was run: as §1
# [7] = molecular target: Gal(b1-3)[GlcNAc(b1-6)]GalNAc
# How it was run: as §1
# [8] = molecular target: Gal(b1-3)[Neu5Ac(a2-6)]GalNAc
# How it was run: as §1
# [9] = molecular target: Gal(b1-3)[Neu5Ac(a2-6)]GlcNAc(b1-4)Gal(b1-4)Glc
# How it was run: as §1
# [10] = molecular target: Gal(b1-3)[Neu5Ac(b2-6)]GalNAc
# How it was run: as §1
# [11] = molecular target: Gal(b1-4)GalNAc(a1-3)[Fuc(a1-2)]Gal(b1-4)GlcNAc
# How it was run: as §1
# Gal(b1-4)Glc = molecular target: Gal(b1-4)Glc
# How it was run: as §1
# Gal(b1-4)Glc6S = molecular target: Gal(b1-4)Glc6S
# How it was run: as §1
# Gal(b1-4)GlcNAc = molecular target: Gal(b1-4)GlcNAc
# How it was run: as §1
# [12] = molecular target: Gal(b1-4)GlcNAc(b1-3)Gal(b1-4)Glc
# How it was run: as §1
# [13] = molecular target: Gal(b1-4)GlcNAc(b1-3)Gal(b1-4)GlcNAc
# How it was run: as §1
# [14] = molecular target: Gal(b1-4)GlcNAc(b1-3)Gal(b1-4)GlcNAc(b1-3)Gal(b1-4)GlcNAc
# How it was run: as §1
# [15] = molecular target: Gal(b1-4)GlcNAc(b1-3)Gal(b1-4)[Fuc(a1-3)]GlcNAc(b1-3)Gal(b1-4)[Fuc(a1-3)]GlcNAc
# How it was run: as §1
# [16] = molecular target: Gal(b1-4)GlcNAc(b1-3)GalNAc
# How it was run: as §1
# [17] = molecular target: Gal(b1-4)GlcNAc(b1-3)[Gal(b1-4)GlcNAc(b1-6)]GalNAc
# How it was run: as §1
# [18] = molecular target: Gal(b1-4)GlcNAc(b1-6)GalNAc
# How it was run: as §1
# [19] = molecular target: Gal(b1-4)GlcNAc(b1-6)[Gal(b1-3)]GalNAc
# How it was run: as §1
# Gal3S(b1-3)GalNAc = molecular target: Gal3S(b1-3)GalNAc
# How it was run: as §1
# Gal3S(b1-3)GlcNAc = molecular target: Gal3S(b1-3)GlcNAc
# How it was run: as §1
# [20] = molecular target: Gal3S(b1-3)[Fuc(a1-4)]GlcNAc
# How it was run: as §1
# Gal3S(b1-4)Glc = molecular target: Gal3S(b1-4)Glc
# How it was run: as §1
# Gal3S(b1-4)Glc6S = molecular target: Gal3S(b1-4)Glc6S
# How it was run: as §1
# Gal3S(b1-4)GlcNAc = molecular target: Gal3S(b1-4)GlcNAc
# How it was run: as §1
# Gal4S(b1-4)GlcNAc = molecular target: Gal4S(b1-4)GlcNAc
# How it was run: as §1
# Gal6S(b1-4)Glc = molecular target: Gal6S(b1-4)Glc
# How it was run: as §1
# Gal6S(b1-4)Glc6S = molecular target: Gal6S(b1-4)Glc6S
# How it was run: as §1
# GalNAc(a1-3)Gal = molecular target: GalNAc(a1-3)Gal
# How it was run: as §1
# GalNAc(a1-3)GalNAc = molecular target: GalNAc(a1-3)GalNAc
# How it was run: as §1
# GalNAc(b1-3)GalNAc = molecular target: GalNAc(b1-3)GalNAc
# How it was run: as §1
# GalNAc(b1-4)GlcNAc = molecular target: GalNAc(b1-4)GlcNAc
# How it was run: as §1
# Glc(a1-4)Glc = molecular target: Glc(a1-4)Glc
# How it was run: as §1
binder,measurement,setting,value
B1,glycan array binding signal (z-score),[1],-0.104
same,glycan array binding signal (z-score),Gal(a1-3)GalNAc,0.334
same,glycan array binding signal (z-score),[2],-0.246
same,glycan array binding signal (z-score),Gal(a1-4)Gal(b1-4)Glc,-0.339
same,glycan array binding signal (z-score),Gal(a1-4)Gal(b1-4)GlcNAc,-0.116
same,glycan array binding signal (z-score),Gal(a1-4)GlcNAc,0.125
same,glycan array binding signal (z-score),Gal(a1-6)Glc,-0.296
same,glycan array binding signal (z-score),Gal(b1-2)Gal,-0.31
same,glycan array binding signal (z-score),Gal(b1-3)Gal,-0.058
same,glycan array binding signal (z-score),Gal(b1-3)GalNAc,-0.193
same,glycan array binding signal (z-score),[3],-0.487
same,glycan array binding signal (z-score),[4],-0.404
same,glycan array binding signal (z-score),Gal(b1-3)GlcNAc,0.07
same,glycan array binding signal (z-score),[5],-0.335
same,glycan array binding signal (z-score),[6],-0.208
same,glycan array binding signal (z-score),[7],-0.31
same,glycan array binding signal (z-score),[8],-0.296
same,glycan array binding signal (z-score),[9],-0.419
same,glycan array binding signal (z-score),[10],-0.232
same,glycan array binding signal (z-score),[11],0.124
same,glycan array binding signal (z-score),Gal(b1-4)Glc,-0.043
same,glycan array binding signal (z-score),Gal(b1-4)Glc6S,-0.384
same,glycan array binding signal (z-score),Gal(b1-4)GlcNAc,-0.097
same,glycan array binding signal (z-score),[12],-0.351
same,glycan array binding signal (z-score),[13],-0.308
same,glycan array binding signal (z-score),[14],-0.41
same,glycan array binding signal (z-score),[15],-0.375
same,glycan array binding signal (z-score),[16],-0.171
same,glycan array binding signal (z-score),[17],-0.426
same,glycan array binding signal (z-score),[18],-0.384
same,glycan array binding signal (z-score),[19],-0.276
same,glycan array binding signal (z-score),Gal3S(b1-3)GalNAc,0.015
same,glycan array binding signal (z-score),Gal3S(b1-3)GlcNAc,0.064
same,glycan array binding signal (z-score),[20],-0.372
same,glycan array binding signal (z-score),Gal3S(b1-4)Glc,-0.329
same,glycan array binding signal (z-score),Gal3S(b1-4)Glc6S,-0.172
same,glycan array binding signal (z-score),Gal3S(b1-4)GlcNAc,0.268
same,glycan array binding signal (z-score),Gal4S(b1-4)GlcNAc,0.155
same,glycan array binding signal (z-score),Gal6S(b1-4)Glc,-0.24
same,glycan array binding signal (z-score),Gal6S(b1-4)Glc6S,0
same,glycan array binding signal (z-score),GalNAc(a1-3)Gal,6.44
same,glycan array binding signal (z-score),GalNAc(a1-3)GalNAc,0.291
same,glycan array binding signal (z-score),GalNAc(b1-3)GalNAc,0.467
same,glycan array binding signal (z-score),GalNAc(b1-4)GlcNAc,0.319
same,glycan array binding signal (z-score),Glc(a1-4)Glc,-0.316

# — the supplement of paper PMC8728848
